Reference: PMC11549141
No constants are given. Whether binding was seen depends on the method and setting. For part of these data: Binding seen in cells or lysates may run through a third protein. Some results given as binding are weak or reduced against the parent protein; the word gives no strength. For part of these data: Sequences can lack the tags named with a protein.

T1: OSH1 fused with the GAL4 DNA binding domain (rice) (UniProt P46609)
T1 sequence: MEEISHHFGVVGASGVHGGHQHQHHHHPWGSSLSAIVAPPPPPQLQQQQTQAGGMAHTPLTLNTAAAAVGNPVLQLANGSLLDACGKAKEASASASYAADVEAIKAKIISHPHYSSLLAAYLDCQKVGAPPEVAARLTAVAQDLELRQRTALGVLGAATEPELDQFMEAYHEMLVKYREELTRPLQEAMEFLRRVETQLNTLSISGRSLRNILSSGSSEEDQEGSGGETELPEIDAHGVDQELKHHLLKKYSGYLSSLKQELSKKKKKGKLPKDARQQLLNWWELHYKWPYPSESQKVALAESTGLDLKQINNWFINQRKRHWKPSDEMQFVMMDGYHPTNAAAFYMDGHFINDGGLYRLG

T2: PCF1 fused with the GAL4 DNA binding domain (rice) (UniProt O23875)
T2 sequence: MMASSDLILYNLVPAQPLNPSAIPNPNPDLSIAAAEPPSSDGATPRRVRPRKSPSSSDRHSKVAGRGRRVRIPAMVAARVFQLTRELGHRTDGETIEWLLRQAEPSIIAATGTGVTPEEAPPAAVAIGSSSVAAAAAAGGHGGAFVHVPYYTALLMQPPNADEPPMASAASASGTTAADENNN

T3: bHLH089 fused with the GAL4 DNA binding domain (rice) (UniProt Q84T08)
T3 sequence: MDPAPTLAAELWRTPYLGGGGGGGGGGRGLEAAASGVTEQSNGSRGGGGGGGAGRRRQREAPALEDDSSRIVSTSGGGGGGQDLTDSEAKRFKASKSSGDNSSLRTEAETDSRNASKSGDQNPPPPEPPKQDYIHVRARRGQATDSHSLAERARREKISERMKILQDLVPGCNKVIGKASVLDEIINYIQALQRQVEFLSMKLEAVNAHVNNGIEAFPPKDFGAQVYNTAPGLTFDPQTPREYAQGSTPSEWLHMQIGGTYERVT

T4: bHLH094 fused with the GAL4 DNA binding domain (rice) (UniProt Q69WS3)
T4 sequence: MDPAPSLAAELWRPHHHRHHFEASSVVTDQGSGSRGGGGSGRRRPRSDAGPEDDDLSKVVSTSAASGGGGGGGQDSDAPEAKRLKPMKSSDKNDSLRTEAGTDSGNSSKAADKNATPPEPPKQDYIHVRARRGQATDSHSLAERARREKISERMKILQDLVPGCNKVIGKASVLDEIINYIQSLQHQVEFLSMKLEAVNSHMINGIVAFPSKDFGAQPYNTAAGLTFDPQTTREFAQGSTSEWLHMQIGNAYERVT

T5: YAB4 fused with the GAL4 DNA binding domain (rice) (UniProt Q6H668)
T5 sequence: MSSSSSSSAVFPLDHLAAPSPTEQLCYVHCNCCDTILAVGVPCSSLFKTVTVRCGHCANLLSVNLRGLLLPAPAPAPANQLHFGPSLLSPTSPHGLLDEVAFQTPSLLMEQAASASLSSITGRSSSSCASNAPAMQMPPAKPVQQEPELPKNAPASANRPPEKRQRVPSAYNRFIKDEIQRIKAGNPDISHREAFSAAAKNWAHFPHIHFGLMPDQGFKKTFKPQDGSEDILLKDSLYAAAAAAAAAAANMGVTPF

T6: bZIP23 fused with the GAL4 DNA binding domain (rice) (UniProt Q6Z312)
T6 sequence: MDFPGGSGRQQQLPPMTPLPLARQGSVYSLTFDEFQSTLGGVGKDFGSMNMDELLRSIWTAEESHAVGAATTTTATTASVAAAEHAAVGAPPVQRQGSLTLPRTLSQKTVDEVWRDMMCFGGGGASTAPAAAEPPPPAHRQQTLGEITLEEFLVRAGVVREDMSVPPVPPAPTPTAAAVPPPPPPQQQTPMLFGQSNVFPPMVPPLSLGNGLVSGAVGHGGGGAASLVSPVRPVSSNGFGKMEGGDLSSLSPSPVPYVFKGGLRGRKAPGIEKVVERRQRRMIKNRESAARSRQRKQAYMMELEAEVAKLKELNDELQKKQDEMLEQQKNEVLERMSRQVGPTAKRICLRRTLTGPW

T7: PCF1 in YFC43 (BiFC) (rice) (UniProt O23875)
T7 sequence: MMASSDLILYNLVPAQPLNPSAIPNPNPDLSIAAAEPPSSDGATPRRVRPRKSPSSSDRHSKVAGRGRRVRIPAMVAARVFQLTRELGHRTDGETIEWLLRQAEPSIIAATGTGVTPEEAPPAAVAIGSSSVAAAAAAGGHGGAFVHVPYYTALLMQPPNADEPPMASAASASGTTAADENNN

T8: bZIP23 in YFC43 (BiFC) (rice) (UniProt Q6Z312)
T8 sequence: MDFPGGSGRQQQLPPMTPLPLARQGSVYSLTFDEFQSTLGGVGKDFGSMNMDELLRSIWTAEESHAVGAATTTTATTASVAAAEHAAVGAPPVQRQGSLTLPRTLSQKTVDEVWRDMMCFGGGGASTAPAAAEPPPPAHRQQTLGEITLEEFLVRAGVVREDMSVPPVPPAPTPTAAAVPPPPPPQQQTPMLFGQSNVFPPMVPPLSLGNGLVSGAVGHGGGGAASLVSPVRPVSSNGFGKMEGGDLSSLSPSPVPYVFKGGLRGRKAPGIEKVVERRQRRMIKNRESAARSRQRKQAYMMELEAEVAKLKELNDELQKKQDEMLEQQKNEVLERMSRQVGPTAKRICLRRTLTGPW

T9: OSH1 in YFC43 (BiFC) (rice) (UniProt P46609)
T9 sequence: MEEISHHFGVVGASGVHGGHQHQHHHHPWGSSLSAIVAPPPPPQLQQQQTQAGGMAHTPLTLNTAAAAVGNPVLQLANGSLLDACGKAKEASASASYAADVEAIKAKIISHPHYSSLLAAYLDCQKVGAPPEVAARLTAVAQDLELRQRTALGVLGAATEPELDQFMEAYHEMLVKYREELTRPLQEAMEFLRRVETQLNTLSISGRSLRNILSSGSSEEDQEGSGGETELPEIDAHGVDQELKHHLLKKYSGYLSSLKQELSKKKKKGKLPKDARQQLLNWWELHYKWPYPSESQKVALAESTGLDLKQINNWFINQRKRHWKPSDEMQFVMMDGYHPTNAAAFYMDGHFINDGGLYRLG

T10: YAB4 in YFC43 (BiFC) (rice) (UniProt Q6H668)
T10 sequence: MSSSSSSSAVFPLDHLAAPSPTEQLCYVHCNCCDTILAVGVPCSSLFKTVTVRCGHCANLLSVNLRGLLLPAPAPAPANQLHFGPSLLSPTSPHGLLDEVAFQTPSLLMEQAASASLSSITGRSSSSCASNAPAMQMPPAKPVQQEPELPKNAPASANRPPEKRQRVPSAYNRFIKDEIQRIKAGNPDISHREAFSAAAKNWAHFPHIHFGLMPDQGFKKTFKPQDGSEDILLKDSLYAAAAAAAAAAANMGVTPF

T11: bHLH089 in YFC43 (BiFC) (rice) (UniProt Q84T08)
T11 sequence: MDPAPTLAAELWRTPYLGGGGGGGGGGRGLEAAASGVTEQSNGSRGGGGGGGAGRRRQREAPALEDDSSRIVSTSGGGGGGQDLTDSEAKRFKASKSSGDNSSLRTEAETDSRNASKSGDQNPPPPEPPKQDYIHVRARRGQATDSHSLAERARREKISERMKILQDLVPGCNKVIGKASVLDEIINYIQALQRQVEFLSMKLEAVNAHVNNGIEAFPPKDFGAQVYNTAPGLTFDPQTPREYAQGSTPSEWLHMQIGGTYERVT

T12: bHLH094 in YFC43 (BiFC) (rice) (UniProt Q69WS3)
T12 sequence: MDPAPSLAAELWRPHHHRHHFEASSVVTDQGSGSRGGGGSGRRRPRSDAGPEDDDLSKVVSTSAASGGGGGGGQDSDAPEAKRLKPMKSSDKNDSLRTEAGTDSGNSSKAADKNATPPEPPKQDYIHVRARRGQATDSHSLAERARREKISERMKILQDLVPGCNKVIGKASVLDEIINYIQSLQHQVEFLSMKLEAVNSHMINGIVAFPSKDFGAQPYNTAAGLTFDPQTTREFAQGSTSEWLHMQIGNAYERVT


Key:
[1] = biological target: T1, OSH1 fused with the GAL4 DNA binding domain (rice); assay: two-hybrid; SLR1 forms in pGADT7 (GAL4 AD), transcription factors in pGBKT7 (GAL4 BD); S. cerevisiae Y2HGold; screening on SD/-Leu/-Trp/-Ade/-His; three individual colonies
[2] = biological target: T2, PCF1 fused with the GAL4 DNA binding domain (rice); assay: as above
[3] = biological target: T3, bHLH089 fused with the GAL4 DNA binding domain (rice); assay: as above
[4] = biological target: T4, bHLH094 fused with the GAL4 DNA binding domain (rice); assay: as above
[5] = biological target: T5, YAB4 fused with the GAL4 DNA binding domain (rice); assay: as above
[6] = biological target: T6, bZIP23 fused with the GAL4 DNA binding domain (rice); assay: as above
[7] = biological target: T7, PCF1 in YFC43 (BiFC) (rice); assay: split reporter; BiFC: SLR1 forms in YFN43, transcription factors in YFC43; co-infiltrated Nicotiana benthamiana leaves with P19; fluorescence microscopy 48-72 h after infiltration
[8] = biological target: T8, bZIP23 in YFC43 (BiFC) (rice); assay: as above
[9] = biological target: T9, OSH1 in YFC43 (BiFC) (rice); assay: as above
[10] = biological target: T10, YAB4 in YFC43 (BiFC) (rice); assay: as above
[11] = biological target: T11, bHLH089 in YFC43 (BiFC) (rice); assay: as above
[12] = biological target: T12, bHLH094 in YFC43 (BiFC) (rice); assay: as above

Binder	binding [1]	binding [2]	binding [3]	binding [4]	binding [5]	binding [6]	binding [7]	binding [8]	binding [9]	binding [10]	binding [11]	binding [12]
SLENDER RICE1 (SLR1) fused with the GAL4 activation domain (protein, UniProt Q7G7J6 1-625) MKREYQEAGGSSGGGSSADMGSCKDKVMAGAAGEEEDVDELLAALGYKVRSSDMADVAQKLEQLEMAMGMGGVSAPGAADDGFVSHLATDTVHYNPSDLSSWVESMLSELNAPLPPIPPAPPAARHASTSSTVTGGGGSGFFELPAAADSSSSTYALRPISLPVVATADPSAADSARDTKRMRTGGGSTSSSSSSSSSLGGGASRGSVVEAAPPATQGAAAANAPAVPVVVVDTQEAGIRLVHALLACAEAVQQENFAAAEALVKQIPTLAASQGGAMRKVAAYFGEALARRVYRFRPADSTLLDAAFADLLHAHFYESCPYLKFAHFTANQAILEAFAGCHRVHVVDFGIKQGMQWPALLQALALRPGGPPSFRLTGVGPPQPDETDALQQVGWKLAQFAHTIRVDFQYRGLVAATLADLEPFMLQPEGEADANEEPEVIAVNSVFELHRLLAQPGALEKVLGTVHAVRPRIVTVVEQEANHNSGSFLDRFTESLHYYSTMFDSLEGGSSGQAELSPPAAGGGGGTDQVMSEVYLGRQICNVVACEGAERTERHETLGQWRNRLGRAGFEPVHLGSNAYKQASTLLALFAGGDGYRVEEKEGCLTLGWHTRPLIATSAWRVAAA	binds	no binding	binds	binds	binds	binds	–	–	–	–	–	–
SLENDER RICE1 (SLR1) in YFN43 (BiFC) (protein, UniProt Q7G7J6 1-625) MKREYQEAGGSSGGGSSADMGSCKDKVMAGAAGEEEDVDELLAALGYKVRSSDMADVAQKLEQLEMAMGMGGVSAPGAADDGFVSHLATDTVHYNPSDLSSWVESMLSELNAPLPPIPPAPPAARHASTSSTVTGGGGSGFFELPAAADSSSSTYALRPISLPVVATADPSAADSARDTKRMRTGGGSTSSSSSSSSSLGGGASRGSVVEAAPPATQGAAAANAPAVPVVVVDTQEAGIRLVHALLACAEAVQQENFAAAEALVKQIPTLAASQGGAMRKVAAYFGEALARRVYRFRPADSTLLDAAFADLLHAHFYESCPYLKFAHFTANQAILEAFAGCHRVHVVDFGIKQGMQWPALLQALALRPGGPPSFRLTGVGPPQPDETDALQQVGWKLAQFAHTIRVDFQYRGLVAATLADLEPFMLQPEGEADANEEPEVIAVNSVFELHRLLAQPGALEKVLGTVHAVRPRIVTVVEQEANHNSGSFLDRFTESLHYYSTMFDSLEGGSSGQAELSPPAAGGGGGTDQVMSEVYLGRQICNVVACEGAERTERHETLGQWRNRLGRAGFEPVHLGSNAYKQASTLLALFAGGDGYRVEEKEGCLTLGWHTRPLIATSAWRVAAA	–	–	–	–	–	–	no binding	binds	binds	binds	binds	binds
